This is one part of the list. At the low end of the ranking the order means little.
biological target: T1, GST-Rok-C97-191 (UniProt O34857); assay: protein binding microarray; conditions: Rok is a gene silencer of Bacillus subtilis; high values mean tight binding; most listed sequences are background and not binding sites; double strand, one strand shown;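 further: rank score from −0.5 (least bound) to 0.5 (best bound)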
T1 sequence: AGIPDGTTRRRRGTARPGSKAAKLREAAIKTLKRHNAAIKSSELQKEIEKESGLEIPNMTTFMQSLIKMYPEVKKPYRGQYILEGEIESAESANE

Row | Sequence | binding signal [E-score]
1 | ATGGGTGG | 0.156
2 | CATGAGCG | -0.135
3 | GGCTCACC | -0.33
4 | CTTACTCA | -0.0129
5 | GTATGTTA | 0.173
6 | GGAAGGGA | -0.286
7 | CCGGGCGA | -0.304
8 | AATCGAAA | 0.0906
9 | CAAATAGG | -6.59e-05
10 | TTCCCGAA | -0.069
11 | GATTCTGC | 0.0425
12 | CGCACAGC | -0.196
13 | CGGATACG | -0.0449
14 | AATAAGAG | 0.0629
15 | AGTGTCCC | -0.247
16 | GGCAACAA | -0.0733
17 | ATTCCACG | 0.0233
18 | TAAGGACA | -0.213
19 | TAATGGCA | 0.0693
20 | CGGGTATA | 0.155
21 | CATGTATA | 0.2
22 | ACGGGACG | -0.207
23 | AAATAAAA | 0.258
24 | GTCGAACA | 0.078
25 | CATGGCTC | -0.124

Row | Sequence | binding signal [E-score]
26 | CCACAGAC | -0.0166
27 | AATGCCGC | 0.0234
28 | CCCTAACA | -0.0545
29 | CACCCATC | -0.135
30 | AGCCTAAA | -0.129
31 | CAGAAAGA | -0.0578
32 | CCCTACTC | -0.269
33 | CCAGACGG | 0.00887
34 | ATGGACTC | -0.115
35 | GAGATTCA | 0.0314
36 | AAGGCATC | 0.128
37 | CGACCCAG | -0.0762
38 | CGTGAGAA | 0.177
39 | CAATTGAG | 0.0246
40 | TAGAATGA | 0.246
41 | ACTCCCTA | -0.269
42 | GTTACGAA | -0.151
43 | CGTCATTC | 0.164
44 | CGCCACAG | -0.229
45 | TAGTGTGA | 0.0421
46 | AAAGTCAA | -0.0778
47 | AACACATG | 0.0194
48 | ACCAATAC | -0.0177
49 | ACGGTCAA | 0.0621
50 | GCTACCTA | 0.271

Row | Sequence | binding signal [E-score]
51 | AGGTTGTC | -0.00169
52 | CTGCGATC | -0.063
53 | GGCGGGAA | -0.104
54 | AAATTCTG | 0.207
55 | CTCCCTTC | -0.27
56 | CAAGTCAG | -0.15
57 | ATATCGCC | 0.0442
58 | CTGTATGA | 0.0512
59 | GCGCTGGA | 0.00918
60 | GACATTCA | -0.0126
61 | GTCGTAAC | 0.0491
62 | AGTCGGGA | -0.156
63 | CAGCCCTG | -0.157
64 | ATTGAGTC | 0.139
65 | AACATAGC | 0.0664
66 | GAAAGTAA | 0.226
67 | AGCGTAGG | 0.0326
68 | CGACACGA | -0.071
69 | GCTTAATA | 0.186
70 | CGGACGTA | 0.162
71 | CGTTCATC | -0.181
72 | CGACCGGA | -0.00838
73 | CCGATGTA | 0.171
74 | GAACGTGC | -0.194
75 | CTGCTCTA | 0.0496

Row | Sequence | binding signal [E-score]
76 | CCATGGGA | -0.277
77 | CATTATGA | 0.0691
78 | GAACTTGC | 0.0584
79 | AAGCTGCG | -0.00431
80 | GAATAAAA | 0.119
81 | CGCCCGAG | -0.165
82 | ACACCACG | -0.0773
83 | GCTAGCCC | -0.205
84 | CCATGTGA | -0.0549
85 | GAGGGTCC | -0.237
86 | AAACTAAC | 0.308
87 | ATGACAGG | -0.15
88 | ATCCGTAG | -0.123
89 | AAGGCGTC | -0.219
90 | AGTAGGTA | 0.4
91 | ACTCGTCA | -0.0101
92 | CAGACGAC | -0.0565
93 | AGTCAAGC | 0.0524
94 | ATGTTGTG | -0.0523
95 | GCATTGAC | -0.152
96 | TAAAAGGA | -0.0824
97 | GGCCCAGA | -0.103
98 | GTACTAAC | 0.145
99 | TAGATAAA | 0.292
100 | CATGGTGG | -0.336

Row | Sequence | binding signal [E-score]
101 | AAAGTAGT | 0.328
102 | CCGGCGCC | -0.268
103 | GTTTGGTA | 0.278
104 | ACTCGTAG | 0.244
105 | CTATAAGC | 0.149
106 | GCGGATTA | -0.00735
107 | ACGGCACT | -0.0261
108 | ATCTCATA | 0.16
109 | ATGAAGAA | 0.0442
110 | GGTGTCGA | -0.13
111 | GAATCAGC | -0.0888
112 | CGGCCCCA | -0.242
113 | AAACGCAA | 0.0403
114 | AAGTTCTA | 0.223
115 | CCAGGGTC | -0.226
116 | CCCAAGGA | -0.259
117 | AAAGCCCT | -0.169
118 | GTGAAAGA | 0.0757
119 | AGGAGGGA | -0.173
120 | TCCGATAA | 0.061
121 | GGACCCTA | -0.149
122 | TCGAAACA | -0.0654
123 | ACCGTCTG | 0.0881
124 | CTAGGGCC | -0.179
125 | CACACGCC | -0.0594

Row | Sequence | binding signal [E-score]
126 | TAATATGA | 0.241
127 | ATTATTAC | 0.387
128 | AGCTCTGA | -0.234
129 | CCGCATTA | 0.0357
130 | AGAAATTG | 0.139
131 | CGTAGACA | -0.179
132 | AGCCGACG | -0.123
133 | AGCACGTA | -0.011
134 | AGACTTGG | -0.0428
135 | CTAGTCAG | -0.0101
136 | GGGACTTA | 0.116
137 | TATTGGCA | 0.0968
138 | CTTCACAA | 0.0794
139 | CAAGAGCG | -0.277
140 | AACTGTGA | 0.226
141 | CCCTCGGA | -0.173
142 | GGGGCAGA | -0.413
143 | CCGTGCTA | -0.0821
144 | ACGCCAGT | -0.157
145 | CAGTCGAC | -0.196
146 | AGTCCTCA | -0.05
147 | GGACACAA | -0.187
148 | ACCGAACC | -0.168
149 | TCCGCGCA | -0.244
150 | GAATTATA | 0.24

Row | Sequence | binding signal [E-score]
151 | CCACCGAG | -0.116
152 | AACCTAGG | 0.0344
153 | ACGGGAAC | -0.165
154 | GAAGGTCC | -0.275
155 | ATAAAGAA | -0.0542
156 | ACAGCTTA | -0.0692
157 | GCTTGAAC | -0.0848
158 | GCCTAGCC | -0.224
159 | CGCCACAA | -0.173
160 | CATGTGCC | -0.0705
161 | CACCGGTG | -0.236
162 | GAGGGATA | 0.098
163 | ATCCCAGG | 0.00674
164 | GATTCTCC | 0.133
165 | ACTCTAAA | -0.0436
166 | ATTAGCCC | -0.092
167 | GTCAAAAC | -0.0712
168 | CGTGTTAG | -0.0851
169 | ACCGGTTC | -0.187
170 | AATTCGGG | 0.0614
171 | AGGTGGTC | -0.297
172 | CCCCGACC | -0.359

— PMC6212790
